{"source": "PubChem BioAssay AID624296", "about": "(National Center for Advancing Translational Sciences (NCATS), 2012)", "note": "Values joined by “and” are separate entries in the source; they are usually repeats but may differ in a detail not shown here. Identical values can stand only once. Hit rate of the full screen: of about 350,000 compounds, about 9,900 (2.8%) were called active. Inconclusive means that the source gave no clear call. Such entries were picked first, then a sample of the others. Calls come from the whole dose curve; as a rule, active = well fitted activation curve with a large enough effect; inconclusive = small, poorly fitted or top-dose-only effect; inactive = no such curve, though single readings can be large or run the other way. Potencies of inconclusive entries are left out as doubtful fits. The source holds several records for some structures; these can differ, active in one and inactive in another. Potency is the fitted concentration of half-maximal effect; tags give direction and shape of the fitted curve."}
{"experiment": "A quantitative high throughput screen for small molecules that induce DNA re-replication in MCF 10a normal breast cells; note: nearly all actives have a fitted effect of over 50% in size.", "conditions": "MCF 10A DNA re-replication, Hoechst nuclear intensity, 48 h; series mostly up to 46.1 µM"}
{"smiles": "Cc1cccc2c1Sc1ccc(Cl)cc1CC2N1CCNCC1", "note": "(stereo not drawn)", "Potency": "active: 11.6 µM"}
{"smiles": "O=C(CC(=O)c1ccccc1)CC(O)(C=Cc1ccccc1)c1ccccc1", "note": "(stereo not drawn)", "Potency": "inconclusive [activator, single point]"}
{"smiles": "COc1ccc2nc(C)cc(SCC(=O)N/N=C/c3ccccc3)c2c1", "Potency": "inactive"}
{"smiles": "Cc1ccccc1CCNC(=O)c1ccc(Cl)c(S(=O)(=O)N2CC(C)OC(C)C2)c1", "note": "(stereo not drawn)", "Potency": "inconclusive [activator, partial curve, poor fit]"}
{"smiles": "COc1ccc([N+](=O)[O-])cc1NC(=O)CN(C)S(=O)(=O)c1ccccc1", "Potency": "inactive"}
{"smiles": "CC(C)Sc1nc2sc3c(c2c2nnc(SCC(=O)NCc4ccco4)n12)CCCC3", "Potency": "inconclusive [activator, single point]"}
{"smiles": "C/C(=N\\Nc1cccc([N+](=O)[O-])c1)c1cc2ccccc2o1", "Potency": "inconclusive [activator, partial curve, poor fit]"}
{"smiles": "CCOC(=O)c1sc(NC(=O)Nc2ccccc2)cc1C", "Potency": "inconclusive [activator, single point]"}
{"smiles": "CC(C)N(C(=O)[C@H]1C[C@H](CC(=O)NCC23CC4CC(CC(C4)C2)C3)C(=O)N2CCc3c([nH]c4cc(CCC(=O)N(C)C)ccc34)[C@]12C)C(C)C", "Potency": "inconclusive [activator, partial curve]"}
{"smiles": "Cc1c(-c2ccccc2)nc2ccccc2c1C(=O)NCc1cccs1", "Potency": "inconclusive [activator, single point]"}
{"smiles": "Cc1nc(Nc2ccc(Br)cc2Br)c([N+](=O)[O-])c(=O)[nH]1", "Potency": "inconclusive [activator, partial curve, poor fit]"}
{"smiles": "CCOc1ccc(-c2nc(CSCC(=O)NCc3ccco3)c(C)o2)cc1", "Potency": "inactive"}
{"smiles": "COc1ccccc1N1CCN(S(=O)(=O)c2ccc3nc(-c4ccccc4)[nH]c3c2)CC1", "Potency": "inactive and active: 25.9 µM"}
{"smiles": "CCc1ccc(-n2cccc2/C=C2/C(=N)N3C(=NC2=O)SN=C3S(C)(=O)=O)cc1", "Potency": "inconclusive [activator, single point]"}
{"smiles": "COC(CC(=O)NNC(=S)Nc1ccc(Cl)cc1)OC", "Potency": "inactive"}
{"smiles": "CCOC(=O)Cc1csc(NC(=O)COc2cc(C)cc(C)c2)n1", "Potency": "inconclusive [activator, partial curve, poor fit]"}
{"smiles": "CC(=O)Nc1ccc(S(=O)(=O)Nc2nc3ccccc3nc2Nc2cccc(O)c2)cc1", "Potency": "inactive"}
{"smiles": "CC(=O)Nc1ccc(SCC(=O)c2ccc(Br)s2)cc1", "Potency": "inconclusive [activator, single point]"}
